# The RNAGym collection of RNA variant scans (doi:10.1073/pnas.2313332121)
# Variants at the floor of the assay are shown more often than the library holds them.
# B1: TPR 5TU (parent)
# chain: GGAUCUUCUCGAUCUAACAAAAAAGACAAAUCUGCCACAAAGCUUGAGAGCAUCUUCGGAUGCAGAGGCGGCAGCCUUCGGUGGCGCGAUAGCGCCAACGUUCUCAACUAUGACACGCAAAACGCGUGCUCCGUUGAAUGGAGUUUAUCAUG
# Variants of: B1
# Assay: polymerase ribozyme fitness, log enrichment relative to wild type (log ratio); higher = more active; in vitro selection for triplet polymerase activity
# Outline: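 PCR was used to build mutant libraries for each subunit of a heterodimeric triplet polymerase ribozyme, which were then transcribed. A single in vitro selection round, in triplicate, used a frozen incubation at −7 °C and recovered extended constructs by gel excision, streptavidin beads and RT-PCR. Fitness is the logarithm of genotype enrichment relative to wild-type enrichment, averaged over replicates with inverse-variance weights. The logarithm is base 2, and after Illumina sequencing only genotypes with ≥10 input reads and ≥1 read per output were kept.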
row,Variant,polymerase ribozyme fitness (log ratio)
1,GGAUCUUCUCGAUCUAACAAAAAAGACAAAUCUGCCACAAAGCUUGAGAGCAUCUUCGGAUGCAGAGGCGGCAGCCUUCGGUGGCGCGAUAGUGUCAACGUCCUCACCUAUGACACGCAAAACGCGUGCUCCGUUGAAUGGAGUUUAUCAUG [C93U C95U U102C A107C],≤ -4.2
2,GGAUCUUCUCGAUCUAACAAAAAAGACAAAUCUGCCACAAAGCUUGAGAGCAUCUUCGGAUGCAGAGGCGGCAGCCUUCGGUGGCGCGAUAGUGCAAACGUUCUCAACUAUGACACGCAAAACGCGUGCUCCGUUGAAUGGAGUUUAUCAUG [C93U C96A],-1.65
3,GGAUCUUCUCGAUCUAACAAAAAAGACAAAUCUGCCACAAAGCUUGAGAGCAUCUUCGGAUGCAGAGGCGGCAGCCUUCGGUGGCGCGAUAGUGCCAACGUUCUCAACUAUGACACGCAAAACGCGUGCUCCGUUGAAUGGAGUUUAUCGUG [C93U A150G],-1.93
4,GGAUCUUCUCGAUCUAACAAAAAAGACAAAUCUGCCACAAAGCUUGAGAGCAUCUUCGGAUGCAGAGGCGGCAGCCUUCGGUGGCGCGAUAGUGCCAACGUUCUCAACUAUGACACGCAAAACGCGUGCUCCGUUGAAUGGAGUUAAUCAUG [C93U U146A],-1.46
5,GGAUCUUCUCGAUCUAACAAAAAAGACAAAUCUGCCACAAAGCUUGAGAGCAUCUUCGGAUGCAGAGGCGGCAGCCUUCGGUGGCGCGAUAGUGCCAACGUUCUCAACUAUGAAACGCAAAACGCGUGCUCCGUUGAAUGGAGUCUAUCAUG [C93U C114A U145C],≤ -4.2
6,GGAUCUUCUCGAUCUAACAAAAAAGACAAAUCUGCCACAAAGCUUGAGAGCAUCUUCGGAUGCAGAGGCGGCAGCCUUCGGUGGCGCGAUAGUGCCAACGUUCUCAACUAUGACACGCAAAACGCGUGCUCCGUUGAAAGGAGUUUAUCAGG [C93U U139A U151G],≤ -4.2
7,GGAUCUUCUCGAUCUAACAAAAAAGACAAAUCUGCCACAAAGCUUGAGAGCAUCUUCGGAUGCAGAGGCGGCAGCCUUCGGUGGCGCGAUAGUGCCAAGGUUCUCAACUAUGACACGCAAAACGCGUGCUCCGUUAAAUGGAGUUUAUCAUG [C93U C99G G136A],-0.753
8,GGAUCUUCUCGAUCUAACAAAAAAGACAAAUCUGCCACAAAGCUUGAGAGCAUCUUCGGAUGCAGAGGCGGCAGCCUUCGGUGGCGCGAUAGUGCCAACGUUCUCAACUAUGACACGCAAAACGCGUGCUCCGUUGAAUGGUGUUUAUCAUG [C93U A142U],-1.68
9,GGAUCUUCUCGAUCUAACAAAAAAGACAAAUCUGCCACAAAGCUUGAGAGCAUCUUCGGAUGCAGAGGCGGCAGCCUUCGGUGGCGCGAUAGUGCCAACGUUCUCAACUAUGAAACGCAAAACGCGUGCUCCGUUGAAUGGAGUUUAUCAUG [C93U C114A],-3.41
10,GGAUCUUCUCGAUCUAACAAAAAAGACAAAUCUGCCACAAAGCUUGAGAGCAUCUUCGGAUGCAGAGGCGGCAGCCUUCGGUGGCGCGAUAGUGCCAACGUUCUCAACUAUGACACGAAAAACGCGUGCUCCGUUGAAUGGAGGUUAUCAUG [C93U C118A U144G],-1.06
11,GGAUCUUCUCGAUCUAACAAAAAAGACAAAUCUGCCACAAAGCUUGAGAGCAUCUUCGGAUGCAGAGGCGGCAGCCUUCGGUGGCGCGAUAGUGCCAACGUUGUCAACUAUGACACGCAUAACGCGUGCUCCGUUGAAUGCAGAUUAUCAUG [C93U C103G A120U G141C U144A],≤ -4.2
12,GGAUCUUCUCGAUCUAACAAAAAAGACAAAUCUGCCACAAAGCUUGAGAGCAUCUUCGGAUGCAGAGGCGGCAGCCUUCGGUGGCGCGAUAGUGCCAACGUUCUCAACUAUGACACGCAAAACGCGUGCUCCGUUGAAUGGAGUUUAUAAUG [C93U C149A],-4.05
13,GGAUCUUCUCGAUCUAACAAAAAAGACAAAUCUGCCACAAAGCUUGAGAGCAUCUUCGGAUGCAGAGGCGGCAGCCUUCGGUGGCGCGAUAGUGCCAACGUUCUCAACUAUGACACGCAAAACGCGUGCUCCGUUGAAUGGAGUUUAUGAUG [C93U C149G],-4.08
14,GGAUCUUCUCGAUCUAACAAAAAAGACAAAUCUGCCACAAAGCUUGAGAGCAUCUUCGGAUGCAGAGGCGGCAGCCUUCGGUGGCGCGAUAGUGCCAAGGUUCUCAAAUAUGACACGAAAAACGCGUGCUCCGUUGAAUGGAGUUUAUCAUG [C93U C99G C108A C118A],≤ -4.2
15,GGAUCUUCUCGAUCUAACAAAAAAGACAAAUCUGCCACAAAGCUUGAGAGCAUCUUCGGAUGCAGAGGCGGCAGCCUUCGGUGGCGCGAUAGUGCCAACGUUCUCAACUAUGACACGCAAAACGGGUGCUCCGUUGAAUGGAGUUUAUCAUG [C93U C125G],-1.79
16,GGAUCUUCUCGAUCUAACAAAAAAGACAAAUCUGCCACAAAGCUUGAGAGCAUCUUCGGAUGCAGAGGCGGCAGCCUUCGGUGGCGCGAUAGUGCCAACGUUCUCAACUAUGACACGAAAAACGAGUGCUCCGUUGAACGGAGUUUAUCAUG [C93U C118A C125A U139C],-4.16
17,GGAUCUUCUCGAUCUAACAAAAAAGACAAAUCUGCCACAAAGCUUGAGAGCAUCUUCGGAUGCAGAGGCGGCAGCCUUCGGUGGCGCGAUAGUGCCAACGUUCUCAACUAUGACACGCAAAACGCGUGCUCCGUUGAAUGGAUUUUAUCAUG [C93U G143U],-3.38
18,GGAUCUUCUCGAUCUAACAAAAAAGACAAAUCUGCCACAAAGCUUGAGAGCAUCUUCGGAUGCAGAGGCGGCAGCCUUCGGUGGCGCGAUAGUGCCAACGUUCUCAACUAUGACACGCAAAACGCGUGCUCCUUUGAAUGGAGUUUAUCAUG [C93U G133U],-3.7
19,GGAUCUUCUCGAUCUAACAAAAAAGACAAAUCUGCCACAAAGCUUGAGAGCAUCUUCGGAUGCAGAGGCGGCAGCCUUCGGUGGCGCGAUAGUGCCAACGUUCUCAACCAUGACACGCAAAACGCGUGCUCCGUUGAAUGGAGUUUAUCAUG [C93U U109C],≤ -4.2
